Numbering of substitutions follows the chain as printed; changes in the protein carry UniProt numbers. The list shows a part of the results.
T1: RBFOX1 RRM (Homo sapiens, UniProt Q9NWB1 109-208)
T1 sequence: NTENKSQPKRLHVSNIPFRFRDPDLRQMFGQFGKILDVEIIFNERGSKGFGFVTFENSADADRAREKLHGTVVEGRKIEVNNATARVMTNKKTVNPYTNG

B1: ACAACCU (DNA:RNA)
RNA: GGGAGACCGGAAUUCAGAUUGUCCACAACCUUUAAAUCCCGUCGUAGCCACCA
DNA 1: CAATCTGAATTCCGGTCTCCC
DNA 2: TGGTGGCTACGACGGGATT
B2: CCUACAC (DNA:RNA)
RNA: B1 RNA with A25C, A27U, C30A, U31C
DNA 1: CAATCTGAATTCCGGTCTCCC
DNA 2: TGGTGGCTACGACGGGATT
B3: GUAUCGC (DNA:RNA)
RNA: B1 RNA with A25G, C26U, A28U, C30G, U31C
DNA 1: CAATCTGAATTCCGGTCTCCC
DNA 2: TGGTGGCTACGACGGGATT
B4: UCUCACC (DNA:RNA)
RNA: B1 RNA with A25U, A27U, A28C, C29A, U31C
DNA 1: CAATCTGAATTCCGGTCTCCC
DNA 2: TGGTGGCTACGACGGGATT
B5: UAUUACU (DNA:RNA)
RNA: B1 RNA with A25U, C26A, A27U, A28U, C29A
DNA 1: CAATCTGAATTCCGGTCTCCC
DNA 2: TGGTGGCTACGACGGGATT
B6: AUGUCGA (DNA:RNA)
RNA: B1 RNA with C26U, A27G, A28U, C30G, U31A
DNA 1: CAATCTGAATTCCGGTCTCCC
DNA 2: TGGTGGCTACGACGGGATT
B7: GCAGGCG (DNA:RNA)
RNA: B1 RNA with A25G, A28G, C29G, U31G
DNA 1: CAATCTGAATTCCGGTCTCCC
DNA 2: TGGTGGCTACGACGGGATT
B8: GAAAGGC (DNA:RNA)
RNA: B1 RNA with A25G, C26A, C29G, C30G, U31C
DNA 1: CAATCTGAATTCCGGTCTCCC
DNA 2: TGGTGGCTACGACGGGATT
B9: CGGUGCU (DNA:RNA)
RNA: B1 RNA with A25C, C26G, A27G, A28U, C29G
DNA 1: CAATCTGAATTCCGGTCTCCC
DNA 2: TGGTGGCTACGACGGGATT
B10: UUCAUCU (DNA:RNA)
RNA: B1 RNA with A25U, C26U, A27C, C29U
DNA 1: CAATCTGAATTCCGGTCTCCC
DNA 2: TGGTGGCTACGACGGGATT
B11: UGUACCA (DNA:RNA)
RNA: B1 RNA with A25U, C26G, A27U, U31A
DNA 1: CAATCTGAATTCCGGTCTCCC
DNA 2: TGGTGGCTACGACGGGATT
B12: CUCUAUC (DNA:RNA)
RNA: GGGAGACCGGAAUUCAGAUUGUCCCUCUAUCUUAAAUCCCGUCGUAGCCACCA
DNA 1: CAATCTGAATTCCGGTCTCCC
DNA 2: TGGTGGCTACGACGGGATT
B13: GCUGUGU (DNA:RNA)
RNA: B1 RNA with A25G, A27U, A28G, C29U, C30G
DNA 1: CAATCTGAATTCCGGTCTCCC
DNA 2: TGGTGGCTACGACGGGATT
B14: AAUCAGU (DNA:RNA)
RNA: B1 RNA with C26A, A27U, A28C, C29A, C30G
DNA 1: CAATCTGAATTCCGGTCTCCC
DNA 2: TGGTGGCTACGACGGGATT
B15: GGCAGGA (DNA:RNA)
RNA: B1 RNA with A25G, C26G, A27C, C29G, C30G, U31A
DNA 1: CAATCTGAATTCCGGTCTCCC
DNA 2: TGGTGGCTACGACGGGATT
B16: UCCCGGC (DNA:RNA)
RNA: B12 RNA with C25U, U26C, U28C, A29G, U30G
DNA 1: CAATCTGAATTCCGGTCTCCC
DNA 2: TGGTGGCTACGACGGGATT
B17: AUUGACU (DNA:RNA)
RNA: B1 RNA with C26U, A27U, A28G, C29A
DNA 1: CAATCTGAATTCCGGTCTCCC
DNA 2: TGGTGGCTACGACGGGATT
B18: GUUAAGG (DNA:RNA)
RNA: B12 RNA with C25G, C27U, U28A, U30G, C31G
DNA 1: CAATCTGAATTCCGGTCTCCC
DNA 2: TGGTGGCTACGACGGGATT
B19: AGGUGUA (DNA:RNA)
RNA: B12 RNA with C25A, U26G, C27G, A29G, C31A
DNA 1: CAATCTGAATTCCGGTCTCCC
DNA 2: TGGTGGCTACGACGGGATT
B20: GAAUAUU (DNA:RNA)
RNA: B12 RNA with C25G, U26A, C27A, C31U
DNA 1: CAATCTGAATTCCGGTCTCCC
DNA 2: TGGTGGCTACGACGGGATT
B21: CCUGCGC (DNA:RNA)
RNA: B1 RNA with A25C, A27U, A28G, C30G, U31C
DNA 1: CAATCTGAATTCCGGTCTCCC
DNA 2: TGGTGGCTACGACGGGATT
B22: GGUUCCA (DNA:RNA)
RNA: B1 RNA with A25G, C26G, A27U, A28U, U31A
DNA 1: CAATCTGAATTCCGGTCTCCC
DNA 2: TGGTGGCTACGACGGGATT
B23: GCGUUGG (DNA:RNA)
RNA: B1 RNA with A25G, A27G, A28U, C29U, C30G, U31G
DNA 1: CAATCTGAATTCCGGTCTCCC
DNA 2: TGGTGGCTACGACGGGATT
B24: CACUCGG (DNA:RNA)
RNA: B12 RNA with U26A, A29C, U30G, C31G
DNA 1: CAATCTGAATTCCGGTCTCCC
DNA 2: TGGTGGCTACGACGGGATT
B25: GAAUGUC (DNA:RNA)
RNA: B12 RNA with C25G, U26A, C27A, A29G
DNA 1: CAATCTGAATTCCGGTCTCCC
DNA 2: TGGTGGCTACGACGGGATT
B26: GAUUCCC (DNA:RNA)
RNA: B1 RNA with A25G, C26A, A27U, A28U, U31C
DNA 1: CAATCTGAATTCCGGTCTCCC
DNA 2: TGGTGGCTACGACGGGATT
B27: CCCGAUU (DNA:RNA)
RNA: B12 RNA with U26C, U28G, C31U
DNA 1: CAATCTGAATTCCGGTCTCCC
DNA 2: TGGTGGCTACGACGGGATT
B28: GCAUUCA (DNA:RNA)
RNA: B1 RNA with A25G, A28U, C29U, U31A
DNA 1: CAATCTGAATTCCGGTCTCCC
DNA 2: TGGTGGCTACGACGGGATT
B29: AGUUACA (DNA:RNA)
RNA: B1 RNA with C26G, A27U, A28U, C29A, U31A
DNA 1: CAATCTGAATTCCGGTCTCCC
DNA 2: TGGTGGCTACGACGGGATT
B30: CGUCGCU (DNA:RNA)
RNA: B1 RNA with A25C, C26G, A27U, A28C, C29G
DNA 1: CAATCTGAATTCCGGTCTCCC
DNA 2: TGGTGGCTACGACGGGATT
B31: UUCCCUC (DNA:RNA)
RNA: B12 RNA with C25U, U28C, A29C
DNA 1: CAATCTGAATTCCGGTCTCCC
DNA 2: TGGTGGCTACGACGGGATT

Biological target: T1, RBFOX1 RRM
Experiment: EMSA; HiTS-Eq, 1 nM pool, 10 min; buffer printed only for the single-RNA assays: 10 mM Tris pH 7.5, 150 mM NaCl, 3.4 mM EDTA, 0.001% NP-40, 30 C
Settings: tags: His6 N-terminal (pET28a); label: 5' 32P
In short: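 A pool of RNA with 7 randomized nucleotides, 5′-radiolabelled and with DNA-annealed flanks, was equilibrated at 1 nM for 10 min in 50 µL with purified RbFox RRM, wild type or mutant, across increasing protein concentrations. Free RNA was separated by 8% native PAGE, excised, reverse-transcribed, barcoded by PCR and sequenced. Relative association constants were obtained from read-count changes of each RNA species versus the control reaction and normalised to the cognate motif.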

| Binder | binding signal |
| --- | --- |
| B1 | 0.000511 KA relative to UGCAUGU |
| B2 | 0.000769 KA relative to UGCAUGU |
| B3 | 0.0143 KA relative to UGCAUGU |
| B4 | 0.00737 KA relative to UGCAUGU |
| B5 | 0.00399 KA relative to UGCAUGU |
| B6 | 0.0144 KA relative to UGCAUGU |
| B7 | 0.0163 KA relative to UGCAUGU |
| B8 | 0.00662 KA relative to UGCAUGU |
| B9 | 0.0158 KA relative to UGCAUGU |
| B10 | 0.00163 KA relative to UGCAUGU |
| B11 | 0.00834 KA relative to UGCAUGU |
| B12 | 0.00383 KA relative to UGCAUGU |
| B13 | 0.0228 KA relative to UGCAUGU |
| B14 | 0.00628 KA relative to UGCAUGU |
| B15 | 0.00916 KA relative to UGCAUGU |
| B16 | 0.00242 KA relative to UGCAUGU |

| Binder | binding signal |
| --- | --- |
| B17 | 0.00733 KA relative to UGCAUGU |
| B18 | 0.00813 KA relative to UGCAUGU |
| B19 | 0.00981 KA relative to UGCAUGU |
| B20 | 0.00452 KA relative to UGCAUGU |
| B21 | 0.0134 KA relative to UGCAUGU |
| B22 | 0.00477 KA relative to UGCAUGU |
| B23 | 0.0192 KA relative to UGCAUGU |
| B24 | 0.00726 KA relative to UGCAUGU |
| B25 | 0.0247 KA relative to UGCAUGU |
| B26 | 0.000323 KA relative to UGCAUGU |
| B27 | 0.00177 KA relative to UGCAUGU |
| B28 | 0.00789 KA relative to UGCAUGU |
| B29 | 0.00471 KA relative to UGCAUGU |
| B30 | 0.0092 KA relative to UGCAUGU |
| B31 | 0.00898 KA relative to UGCAUGU |
